Article PMC9411157
These are yes or no findings as the source states them, for the method shown. Binding seen in cells or lysates may run through a third protein. Some binding calls cover weakened binding; strength is not graded here. Tags and fused reporters may be left off the sequences shown.

How the values were obtained:
[1] = target: T1, Trq2-huCldn3 (Turquoise2-tagged human claudin-3) (human), O15551; test: FRET or BRET; spectral FRET in living HEK293 cells co-transfected with pTrq2-Cldn (donor) and pYFP-Cldn (acceptor); ROIs at the contact of two neighbouring cells expressing both claudins; two-photon excitation 810 nm; FRET ratio = YFP emission (532 nm) / Trq2 emission (468 nm); plasmid ratio 1:1 for Trq2-Cldn3, 1:5 for Trq2-Cldn2 and Trq2-Cldn2^ECL10a; details: remark: other sources report otherwise
T1 chain: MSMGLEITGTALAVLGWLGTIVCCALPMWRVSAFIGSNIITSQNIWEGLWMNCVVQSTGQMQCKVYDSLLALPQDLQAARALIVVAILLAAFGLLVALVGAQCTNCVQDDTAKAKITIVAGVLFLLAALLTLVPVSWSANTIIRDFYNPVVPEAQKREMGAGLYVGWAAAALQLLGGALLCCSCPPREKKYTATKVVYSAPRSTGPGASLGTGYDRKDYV

[2] = target: T2, Trq2-huCldn2^ECL10a (Turquoise2-tagged human claudin-2 with both extracellular loops replaced by those of claudin-10a) (human) (UniProt P57739); test: as above
T2 sequence: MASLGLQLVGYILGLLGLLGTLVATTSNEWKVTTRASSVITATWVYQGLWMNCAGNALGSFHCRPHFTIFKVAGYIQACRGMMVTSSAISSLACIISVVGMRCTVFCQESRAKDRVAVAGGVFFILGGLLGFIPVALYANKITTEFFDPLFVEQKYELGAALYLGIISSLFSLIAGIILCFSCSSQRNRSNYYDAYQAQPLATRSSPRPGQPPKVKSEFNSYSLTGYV

[3] = target: Trq2-huCldn3 (Turquoise2-tagged human claudin-3) (human) (UniProt O15551); test: as above
[4] = target: T3, Trq2-huCldn2 (Turquoise2-tagged human claudin-2) (human), P57739; test: as above; details: remark: other sources report otherwise
T3 chain: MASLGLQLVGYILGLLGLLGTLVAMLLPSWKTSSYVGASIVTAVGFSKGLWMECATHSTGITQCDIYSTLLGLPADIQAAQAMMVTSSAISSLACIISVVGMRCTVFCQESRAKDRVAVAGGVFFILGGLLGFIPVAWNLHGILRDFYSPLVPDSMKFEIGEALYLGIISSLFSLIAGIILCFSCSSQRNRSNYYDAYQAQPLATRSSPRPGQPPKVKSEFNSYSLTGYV

[5] = target: Trq2-huCldn3 (Turquoise2-tagged human claudin-3) (human) (UniProt O15551); test: FRET or BRET; spectral FRET in living COS-7 cells co-transfected with pTrq2-Cldn (donor) and pYFP-Cldn (acceptor), plasmid ratio 1:5; excitation 405 nm; FRET ratio = YFP emission (530 nm) / Trq2 emission (478 nm)
[6] = target: T4, Trq2-huCldn2 (Turquoise2-tagged human claudin-2) (human) (UniProt P57739); test: FRET or BRET; spectral FRET in living HEK293 cells co-transfected with pTrq2-Cldn (donor) and pYFP-Cldn (acceptor); ROIs at the contact of two neighbouring cells expressing both claudins; two-photon excitation 810 nm; FRET ratio = YFP emission (532 nm) / Trq2 emission (468 nm); plasmid ratio 1:1 for Trq2-Cldn3, 1:5 for Trq2-Cldn2 and Trq2-Cldn2^ECL10a
T4 sequence: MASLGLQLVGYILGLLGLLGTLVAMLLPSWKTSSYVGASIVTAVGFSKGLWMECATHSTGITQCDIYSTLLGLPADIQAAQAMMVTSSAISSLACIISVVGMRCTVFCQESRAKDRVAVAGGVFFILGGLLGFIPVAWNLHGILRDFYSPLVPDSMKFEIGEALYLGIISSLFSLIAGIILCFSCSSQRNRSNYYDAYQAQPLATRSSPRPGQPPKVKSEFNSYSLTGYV

[7] = target: T4, Trq2-huCldn2 (Turquoise2-tagged human claudin-2) (human); test: FRET or BRET; spectral FRET in living COS-7 cells co-transfected with pTrq2-Cldn (donor) and pYFP-Cldn (acceptor), plasmid ratio 1:5; excitation 405 nm; FRET ratio = YFP emission (530 nm) / Trq2 emission (478 nm)

B1: Trq2-huCldn3 (Turquoise2-tagged human claudin-3), O15551 1-220 (protein)
chain: MSMGLEITGTALAVLGWLGTIVCCALPMWRVSAFIGSNIITSQNIWEGLWMNCVVQSTGQMQCKVYDSLLALPQDLQAARALIVVAILLAAFGLLVALVGAQCTNCVQDDTAKAKITIVAGVLFLLAALLTLVPVSWSANTIIRDFYNPVVPEAQKREMGAGLYVGWAAAALQLLGGALLCCSCPPREKKYTATKVVYSAPRSTGPGASLGTGYDRKDYV
[1]
  binding: binds

B2: YFP-huCldn2 (YFP-tagged human claudin-2) (protein, UniProt P57739 1-230)
chain: MASLGLQLVGYILGLLGLLGTLVAMLLPSWKTSSYVGASIVTAVGFSKGLWMECATHSTGITQCDIYSTLLGLPADIQAAQAMMVTSSAISSLACIISVVGMRCTVFCQESRAKDRVAVAGGVFFILGGLLGFIPVAWNLHGILRDFYSPLVPDSMKFEIGEALYLGIISSLFSLIAGIILCFSCSSQRNRSNYYDAYQAQPLATRSSPRPGQPPKVKSEFNSYSLTGYV
[2]
  binding: binds
[3]
  binding: binds weakly

B3: Trq2-huCldn2 (Turquoise2-tagged human claudin-2), P57739 1-230 (protein)
chain: MASLGLQLVGYILGLLGLLGTLVAMLLPSWKTSSYVGASIVTAVGFSKGLWMECATHSTGITQCDIYSTLLGLPADIQAAQAMMVTSSAISSLACIISVVGMRCTVFCQESRAKDRVAVAGGVFFILGGLLGFIPVAWNLHGILRDFYSPLVPDSMKFEIGEALYLGIISSLFSLIAGIILCFSCSSQRNRSNYYDAYQAQPLATRSSPRPGQPPKVKSEFNSYSLTGYV
[4]
  binding: binds

B4: YFP-huCldn15 (YFP-tagged human claudin-15) (protein, UniProt P56746 1-228)
chain: MSMAVETFGFFMATVGLLMLGVTLPNSYWRVSTVHGNVITTNTIFENLWFSCATDSLGVYNCWEFPSMLALSGYIQACRALMITAILLGFLGLLLGIAGLRCTNIGGLELSRKAKLAATAGALHILAGICGMVAISWYAFNITRDFFDPLYPGTKYELGPALYLGWSASLISILGGLCLCSACCCGSDEDPAASARRPYQAPVSVMPVATSDQEGDSSFGKYGRNAYV
[3]
  binding: no binding
[5]
  binding: no binding

B5: YFP-huCldn10a (YFP-tagged human claudin-10a) (protein, UniProt P78369-2 1-226)
chain: MSRAQIWALVSGVGGFGALVAATTSNEWKVTTRASSVITATWVYQGLWMNCAGNALGSFHCRPHFTIFKVAGYIQACRGLMIAAVSLGFFGSIFALFGMKCTKVGGSDKAKAKIACLAGIVFILSGLCSMTGCSLYANKITTEFFDPLFVEQKYELGAALFIGWAGASLCIIGGVIFCFSISDNNKTPRYTYNGATSVMSSRTKYHGGEDFKTTNPSKQFDKNAYV
[6]
  binding: no binding
[7]
  binding: no binding
